The subject of experiment [1] is HCC827 cells. The experiment can be described thus: Binding activity to tumor cells, HCC827 (flow cytometry). Also on record: species or system human. Conditions: high expression of EGFR and c-Met. From the text:
A375 cells were human malignant melanoma cells and purchased from Addexbio, which were capable of low expression of EGFR and c-Met receptors. H292 cells were human lung adenocarcinoma cells and purchased from procell, which were capable of high expression of EGFR and c-Met receptors. HCC827 cells were human non-small cell lung cancer cells and purchased from the Cell Bank of the Chinese Academy of Sciences, which were capable of high expression of EGFR and c-Met receptors. The expanded cells were adjusted to an appropriate cell density, and added to a 96-well flow plate. After centrifugation, the gradiently diluted samples to be tested were added and incubated at 4° C. for 1 hour. The cells were washed twice with PBS, then a fluorescent secondary antibody, diluted to an appropriate concentration, was added, incubated at 4° C. for 30 min, and washed twice with PBS. The cells were resuspended by PBS, and detected on a CytoFlex flow cytometer, and corresponding MFI was calculated.
In general terms: In flow cytometry, cells or beads pass a laser one at a time.

Experiment [2] deals with A375/H1975/HCC827 cells. The experiment in a line: ADCC induction, CD16a-NFAT-Luc Jurkat reporter gene cells. Type of experiment: cell-based, human. Conditions: A375, H1975, HCC827 target cells, CD16a-NFAT-Luc Jurkat effector cells, 6 h, FIG. 9. From the text: A375 cells were human malignant melanoma cells and purchased from Addexbio, which were capable of expressing EGFR and c-Met receptors. H1975 cells were human lung adenocarcinoma cells and purchased from Addexbio, which were capable of highly expressing EGFR and c-Met receptors. HCC827 cells were human non-small cell lung cancer cells and purchased from the Cell Bank of the Chinese Academy of Sciences, which were capable of highly expressing EGFR and c-Met receptors. […]
For orientation: A reporter such as luciferase makes a cellular process visible.

For experiment [3], the system named is HCC827-HGF luc. The experiment can be described thus: Cell killing combined with EGFR small molecule inhibitor, HCC827-HGF luc cells with or without PBMC. In kind it is cell-based, human. Conditions: combined with Gefitinib or Erlotinib, 48 h, FIG. 11. From the text:
Using lentiviral transfection, cDNAs encoding luciferase (the sequence was from Uniprot, P08659) and human HGF (hepatocyte growth factor) (the sequence was from UniProtKB P14210) were constructed on the pLVX-neu vector by General Biol, and the plasmid was transfected into HCC827 cells to construct a cell line (HCC827-HGF luc) with stable co-expression of luciferase and HGF. Since overexpression of HGF makes HCC827 cells resistant to first-generation EGFR small molecule inhibitors, an experiment of combining antibodies with first-generation small molecules was designed. The expanded luciferase stably transfected cell line (HCC827-HGF Luc) was digested, centrifuged, counted, and resuspended in working medium (10% FBS+RPMI 1640). The cells were adjusted to a density of 3×10^4/ml, and added to a culture plate at 100 μL per well. PBMC cells were resuscitated from liquid nitrogen, centrifuged, then resuspended in working medium, and added to a culture flask for adherent culture overnight to remove mononuclear cells. […]

Experiment [4] has as its system H292 human lung cancer tumor cells. The experiment in a line: Experimental Model 1: H292 tumor-bearing model. In kind it is in vivo, CB-17 SCID mice. Conditions: H292, Day 7: 10 mg/kg; Day 21: 2 mg/kg; last measured 29 days after inoculation. The method, then:
In this experiment, CB-17 SCID mice were subcutaneously inoculated with H292 human lung cancer tumor cells to establish a tumor-bearing model and determine the anti-tumor effect of the anti-EGFRxc-Met bispecific antibody. Sufficient H292 cells were cultured and expanded in vitro, and the cells were collected after trypsin digestion. After washing with PBS for 3 times, the cells were counted and inoculated subcutaneously at the right abdomen of female 8-week-old CB-17 SCID mice (purchased from Beijing Weitong Lihua) at an amount of 3×10^6 cells/mouse. The subcutaneous tumor formation of tumor cells in the mice was observed daily, and the maximum width axis W and the maximum length axis L of the subcutaneous tumor on the right abdomen of each animal were measured with a vernier caliper, and the weight of each mouse was weighed with an electronic balance. The subcutaneous tumor volume on the right abdomen of each mouse was calculated according to the following formula: tumor volume T=1/2×W×W×L. The mice with too large and too small tumor volumes were eliminated, and the remained mice were divided into 4 groups according to the average tumor volume, with 6 mice in each group. […]
The tumor volume and weight of mice were measured 2 to 3 times a week. The weight and tumor volume of mice were measured for the last time 29 days after the tumor cell inoculation, and then the mice were euthanized.

The subject of experiment [5] is H1975 human lung cancer tumor cells. The experiment in a line: Experimental Model 2: H1975 tumor-bearing model. In kind it is in vivo, CB-17 SCID mice. To be noted: last measured 24 days after inoculation. As to the method: In this experiment, CB-17 SCID mice were subcutaneously inoculated with H1975 human lung cancer tumor cells to establish a tumor-bearing model and determine the anti-tumor effect of the anti-EGFRxc-Met bispecific antibody. Sufficient H1975 cells were cultured and expanded in vitro, and the cells were collected after trypsin digestion. After washing 3 times with PBS, the cells were counted, and inoculated subcutaneously at 3×10^6 cells/mouse into the right abdomen of female 8-week-old CB-17 SCID mice (purchased from Beijing Weitong Lihua). The subcutaneous tumor formation of tumor cells in the mice was observed daily. The maximum width axis W and the maximum length axis L of the subcutaneous tumor on the right abdomen of each animal were measured with a vernier caliper, and the weight of each mouse was weighed with an electronic balance. The subcutaneous tumor volume on the right abdomen of each mouse was calculated according to the following formula: tumor volume T=1/2×W×W×L. The mice with too large and too small tumor volumes were eliminated, and the remained mice were divided into 4 groups according to the average tumor volume, with 6 mice in each group. The mice were divided into groups according to the grouping and dosing scheme in Table 7 and injected with the corresponding doses of antibodies.
The tumor volume and body weight of mice were measured 2 to 3 times a week. The body weight and tumor volume of mice were measured for the last time 24 days after the tumor cell inoculation, and then the mice were euthanized.

Experiment [6] concerns H292 human lung cancer tumor cells. The experiment in a line: Experimental Model 3: H292 tumor-bearing model, different doses. Type of experiment: in vivo, CB-17 SCID mice. Conditions: last measured 30 days after inoculation. The method, then: In this experiment, CB-17 SCID mice were subcutaneously inoculated with H292 human lung cancer tumor cells to establish a tumor-bearing model and compare the anti-tumor effects of different doses of anti-EGFRxc-Met bispecific antibodies. The mouse model establishment process was the same as Experimental Model 1. The groups were divided according to the grouping and administration scheme in Table 8 and the corresponding doses of antibodies were injected.
The tumor volume and weight of mice were measured 2 to 3 times a week. The weight and tumor volume of mice were measured for the last time 30 days after the tumor cell inoculation, and then the mice were euthanized.

The test system is the same in experiment [7]. The experiment can be described thus: Experimental Model 4: H292 tumor-bearing model, comparison with Rybrevant. Conditions: H292, single dose Day 14: 10 mg/kg; last measured 27 days after inoculation. Type of experiment: in vivo, CB-17 SCID mice. An excerpt: In this experiment, CB-17 SCID mice were subcutaneously inoculated with H292 human lung cancer tumor cells to establish a tumor-bearing model, and the anti-EGFRxc-Met bispecific antibody was compared with the commercially available EGFRxc-Met bispecific antibody Rybrevant (purchased from Johnson & Johnson, batch number: LHS3G02) (this antibody had been published at various oncology conferences and was also known as JNJ-6372) in terms of anti-tumor effect. The mouse model establishment process was the same as that of Experimental Model 1. The groups were divided according to the grouping and dosing scheme in Table 9 and the corresponding doses of antibodies were injected.
The tumor volume and body weight of the mice were measured 2 to 3 times a week. The weight and tumor volume of the mice were measured for the last time 27 days after the inoculation of tumor cells, and the mice were euthanized.

The test system of experiment [8] is H1975-HGF human lung cancer cells. The experiment in a line: Experimental Model 5: H1975-HGF tumor-bearing model, combination with Osimertinib. In kind it is in vivo, CB-17 SCID mice. To be noted: antibody Day 16 and Day 18: 3 mg/kg, Osimertinib Days 16 to 22: 3 mg/kg/day, last measured 28 days after inoculation. An excerpt: In this experiment, the in vivo efficacy of the bispecific antibody of the present application in combination with an small molecule EGFR inhibitor (e.g., Osimertinib) was detected. Using the lentiviral transfection method, the cDNA encoding human HGF (hepatocyte growth factor) (the sequence was from UniProtKB P14210) was constructed on the pLVX-neu vector by General Biol, and the plasmid was transfected into H1975 cells to construct a cell line ([…]) with stable expression of HGF. In this experiment, CB-17 SCID mice were subcutaneously inoculated with H1975-HGF human lung cancer cells to establish a tumor-bearing model and determine the anti-tumor effect of the anti-EGFRxc-Met bispecific antibody. The model construction process was the same as that of Experimental Model 2. The mice were divided into groups according to the grouping and dosing scheme in Table 10 and the corresponding doses of antibodies were injected.
The tumor volume and body weight of mice were measured 2 to 3 times a week. The body weight and tumor volume of mice were measured for the last time 28 days after the tumor cell inoculation, and then the mice were euthanized.

One may read the EC50 as the concentration at which the effect is half-maximal. Lower therefore signals greater potency. The TGI is the reduction of tumour growth relative to the control group.

B1: EGFRxMET-136 Afu: afucosylated bispecific antibody; c-Met HC/LC SEQ ID NO: 23/24, EGFR HC/LC SEQ ID NO: 25/26; the final molecule (antibody)
heavy 1: EVQLQESGPGLVKPSETLSLTCTVSGGSVTSVNYYWKWIRQPPGKGLEWIGYISYSGNTNYNPSLKSRVTISVDTSKNQFSLKLSSVTAADTAVYYCVRAPYYYMDVWSKGTTVTVSSASTKGPSVFPLAPSSKSTSGGTAALGCQVEDYFPEPVTVSWNSGALTSGVHTFPAVLQSSGLYELSSVVTVPSSSLGTQTYICNVNHKPSNTKVDKKV[skipping human IgG1 Fc with changes]
light 1: DIVMTQSPSSVSASVGDRVTITCRASQGISSWLAWYQQKPGKAPKLLIYAVSSLQSGVPSRFSGSGSGTDFTLTISSLQPEDFATYFCQQANSFPLTFGGGTKVEIKRTVAAPSVFIFPPSDEQLKSGRASVVCLLNNFYPREAKVQWKVDNALQSGNSQESVTEQDSKDSTYSLSSRLQLSKADYEKHKVYACEVTHQGLSSPVTKSFNRGEC
heavy 2: EVQLVESGGGVVQPGRSLRLSCAASGFTFSTYGMHWVRQAPGKGLEWVAVIWDDGSYKYYGDSVKGRFTISRDNSKNTLYLQMNSLRAEDTAVYYCARDGITMVRGVMKDYFDYWGQGTLVTVSSASTKGPSVFPRAPSSKSTSGGTAALGCLVRDYFPEPVTVSWNSGALTSGVHTFPAVLQSSGLYSLSSVVTVPSSSLGTQTYICNVNHKPSNTKVDKKV[skipping human IgG1 Fc with changes]
light 2: DIQLTQSPSSLSASVGDRVTITCRASQDISSALVWYQQKPGKAPKLLIYDASSLESGVPSRFSGSESGTDFTLTISSLQPEDFATYYCQQFNSYPLTFGGGTKVEIKRTVAAPSVFIFPPSDEELKSGTASVQCLLNNFYPREAKVQWKVDNALQSGNSQESVTEQDSKDSTYSLSSELTLSKADYEKHKVYACEVTHQGLSSPVTKSFNRGEC
modifications: afucosylated
notes: afucosylated bispecific antibody; the final molecule
Regarding B1, the EC50 in experiment [1] was 3.67 nM. In experiment [2], the ADCC effect result is “stronger ADCC effect than the wild-type antibody containing fucose”. In experiment [3] (after adding PBMCs), the “killing of tumor cells, combination versus single agents, with PBMCs” value is on record as “synergistic effect”. The “killing of tumor cells by small molecule inhibitors, without PBMCs” value in experiment [3] (without PBMCs) is reported as “promoted the killing of tumors by the small molecule inhibitors”. Further, the “tumor (volume) inhibition rate (TGI)” value in experiment [4] was 97.3%. Besides, the TGI turned out to be 97.4% in experiment [5] (H1975, 2 mg/kg Day 7 and Day 21); 99.3% in experiment [5] (H1975, 8 mg/kg Day 7 and Day 21); 99.4% in experiment [5] (H1975, 32 mg/kg Day 7 and Day 21); 40.3% in experiment [6] (H292, 4 mg/kg/time Day 14, 18, 21); 90.5% in experiment [6] (H292, 16 mg/kg/time Day 14, 18, 21); 79.9% in experiment [7]. The TGI in experiment [8] worked out at 72.3%.
